Assay results from PubChem BioAssay AID488969 (Vanderbilt High Throughput Screening Facility, 2010).
Over roughly 110,000 compounds, “z-score” has its median near -0.1; the highest 2% begin near 2. The list shows a part of the results. Activity calls are given as the source filed them.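 How the source made its calls: active means z-score in the third read window above 3 or below -3; inactive means the rest.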

Target: Metabotropic glutamate receptor 8 (Rattus norvegicus) (UniProt P70579)
Experiment: mGluR8 Gi/Go-coupled signaling modulation – cell-based, rat, thallium flux, HTS, primary screen (AID 488969)
Settings: HEK293 rat mGluR8, GIRK (G protein-gated inwardly rectifying potassium channel) thallium flux, FluoZin2; at 10 µM; stronger effect = higher value; submaximal glutamate (EC20) added with thallium

UniProt P70579, sequence (P70579 whole entry, looked up): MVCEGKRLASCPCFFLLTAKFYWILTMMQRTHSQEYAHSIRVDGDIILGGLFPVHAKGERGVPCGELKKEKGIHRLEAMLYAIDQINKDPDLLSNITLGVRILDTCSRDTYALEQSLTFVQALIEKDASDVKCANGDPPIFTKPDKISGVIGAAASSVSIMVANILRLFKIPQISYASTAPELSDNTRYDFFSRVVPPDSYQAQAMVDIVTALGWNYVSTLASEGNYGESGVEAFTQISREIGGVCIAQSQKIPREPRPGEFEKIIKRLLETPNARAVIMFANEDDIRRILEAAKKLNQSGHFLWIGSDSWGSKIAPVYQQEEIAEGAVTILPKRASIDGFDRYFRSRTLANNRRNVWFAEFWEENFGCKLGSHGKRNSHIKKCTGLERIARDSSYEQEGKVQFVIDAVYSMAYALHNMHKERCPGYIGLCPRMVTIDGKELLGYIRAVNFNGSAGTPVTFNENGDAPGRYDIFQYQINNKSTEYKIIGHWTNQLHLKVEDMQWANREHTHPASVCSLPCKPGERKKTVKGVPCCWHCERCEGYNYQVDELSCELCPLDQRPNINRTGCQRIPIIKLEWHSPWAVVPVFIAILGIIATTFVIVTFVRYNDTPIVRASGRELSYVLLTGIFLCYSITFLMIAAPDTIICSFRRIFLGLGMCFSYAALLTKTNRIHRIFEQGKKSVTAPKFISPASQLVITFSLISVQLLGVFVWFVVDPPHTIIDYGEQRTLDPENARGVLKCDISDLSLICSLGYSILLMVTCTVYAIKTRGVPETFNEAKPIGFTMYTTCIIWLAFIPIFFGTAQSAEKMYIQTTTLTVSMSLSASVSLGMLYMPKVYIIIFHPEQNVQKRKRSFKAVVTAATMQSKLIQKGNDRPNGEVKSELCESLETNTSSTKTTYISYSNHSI

First: CCS(=O)(=O)c1ccc2c(c1)N(S(C)(=O)=O)CC(C(=O)NCc1ccccc1OC)O2 (stereo not given)
Second: COc1ccc(N(CC(=O)N2CCN(C)CC2)S(=O)(=O)c2ccccc2)cc1OC
The z-score of the first is lower: 0.173 for the first, 0.644 for the second.

Compared with `CCn1c(SCc2cccc(C)c2)nnc1-c1ccccc1`, `CCOC(=O)Cc1nnc(Nc2cccc(C)c2)c2ccccc12` is lower in z-score: -0.431 for the first, -0.988 for the second.

First: N#Cc1c(/N=C/c2cccs2)sc2c1CCC2
Second: Clc1ccc(-c2nnc3n2CCCS3)cc1
The z-score of the first is higher: 0.483 for the first, 0.105 for the second.

Going from `O=C(NC(=S)Nc1nc2c(s1)CCCC2)c1ccc(C(=O)c2ccccc2)cc1` to `COc1ccc(C(=NNc2ccccc2C(=O)O)c2ccc(OC)cc2)cc1`, the z-score falls from 2.41 to 0.0696.

First: Cc1ccc(OCC(=O)NCCN2CCOCC2)cc1C
Second: COc1ccc(OC)c(CN(CCCN2CCOCC2)C(=O)Nc2ccccc2)c1
The z-score of the first is higher: 0.361 for the first, 0.201 for the second.

Going from `O=C(O)/C=C/C(=O)Nc1cccnc1` to `Cc1cc(NC(=O)c2cnn3cccnc23)nn1CC(=O)Nc1cccnc1`, the z-score falls from 0.452 to -0.112.

Compared with `CCOC(=O)c1ccc(NC(=O)CSc2nc(SC)ns2)cc1`, `CCOC(=O)CSc1nc2ccccc2n1C(=O)OCC` is lower in z-score: -0.278 for the first, -0.737 for the second.

Compared with `Cc1ccc(C(=O)N2C3C=CC(C3)C2(C(F)(F)F)C(F)(F)F)cc1` (stereo not given), `COc1ccc(C(=O)n2cnc(N)n2)cc1` is higher in z-score: -0.0848 for the first, 0.0178 for the second.

Compared with `Cn1c(=O)[nH]c(=O)c2c1nc(NC1CCCCC1)n2CC(=O)NC1CCCCC1`, `COc1ccc(NC(=O)CN2CCC(NC(=O)C3CCCCC3)CC2)cc1` is lower in z-score: 0.297 for the first, -0.333 for the second.

Going from `CCCc1cc(=O)oc2c(CN3CCOCC3)c(O)ccc12` to `Cc1sc2nc(CN3CCOCC3)nc(NS(=O)(=O)c3ccc4c(c3)OCCO4)c2c1C`, the z-score rises from -0.0963 to -0.0249.

Going from `O=C(c1cc(-c2ccccc2)on1)N1CCN(C(=O)c2ccco2)CC1` to `O=C(Nc1ccccc1N1CCOCC1)c1cc(-c2ccco2)nc2ccccc12`, the z-score falls from 2.21 to 0.138.

Compared with `O=C1CC(C(=O)Nc2cccc3ccccc23)C2(CCCC2)O1` (stereo not given), `O=C(CSc1c(Cl)cccc1Cl)NC1CCCc2ccccc21` (stereo not given) is higher in z-score: -0.404 for the first, 0.313 for the second.

Going from `CCc1cc(-c2n[nH]c(C)c2-c2nc3ccccc3n2C)c(O)c(CN2CCN(C)CC2)c1O` to `CCCn1c(-c2ccccc2)nc2c(=O)n(C)c(=O)[nH]c21`, the z-score rises from -2.1 to -0.967.

Compared with `NC(=O)C1CCN(C(c2ccccc2Cl)c2nnnn2Cc2ccc3c(c2)OCO3)CC1` (stereo not given), `CC1CCN(S(=O)(=O)c2ccc(C(=O)OCc3ccc4c(c3)OCO4)cc2)CC1` is higher in z-score: -0.596 for the first, -0.112 for the second.

Compared with `CCOc1ccccc1NC(=O)c1cc(C(=O)c2cc(OC)ccc2O)coc1=N`, `Cc1c(-n2cc(C(=O)c3cc(Br)ccc3O)cc(C#N)c2=O)c(=O)n(-c2ccccc2)n1C` is higher in z-score: -0.44 for the first, -0.189 for the second.

First: O=C1c2ccccc2C(=Nc2ccccc2)C1c1cccc(Br)c1 (stereo not given)
Second: O=C(N/N=C/c1ccc(O)cc1)c1[nH]c2ccc(Br)cc2c1-c1ccccc1
The z-score of the first is lower: -0.25 for the first, -0.0753 for the second.

Going from `Cc1cccc2c1N(CCCOc1ccc(C(C)(C)C)cc1)C(=O)C2=O` to `CCCOc1ccc(Cc2nn3c(=O)/c(=C/c4ccco4)sc3nc2=O)cc1`, the z-score falls from 0.77 to 0.00141.

First: Cc1ccccc1C(=O)Oc1ccc(Br)cc1C(=S)N1CCCC1
Second: Oc1cc(Cc2ccccc2)cnc1CN1CCCCC1
The z-score of the first is lower: -0.342 for the first, 0.389 for the second.

Going from `Cc1ccc(S(=O)(=O)N/N=C\c2ccc3c(c2)OCO3)cc1` to `CCN(CC)S(=O)(=O)c1ccc(NS(=O)(=O)c2ccc(F)cc2)cc1`, the z-score rises from 0.157 to 0.169.

Going from `COC(=O)/C=C/CSC1=N/C(=C/c2ccc(-n3cncn3)cc2)C(=O)N1` to `CCOc1cccc(-c2nn(-c3ccccc3)cc2/C=C(/C#N)C(=O)NCCCn2ccnc2)c1`, the z-score falls from -0.0625 to -0.425.

Going from `CN1C(=S)SC(/[N+]([O-])=C/c2cccnc2)C1(C)C` (stereo not given) to `CCOc1ncccc1C(=O)OCC(=O)c1ccc(Cl)s1`, the z-score falls from -0.0373 to -0.0644.

First: COC(=O)c1ccc(C(=O)OCCCc2nc3ccc(N)cc3[nH]2)cc1
Second: CCOC(=O)/C(C#N)=C/c1ccc(OCC(=O)Nc2cc(C)ccc2C)c(OC)c1
The z-score of the first is lower: -0.207 for the first, 0.0362 for the second.

First: CCOC(=O)c1c(NC(=O)CC)sc(C(C)=O)c1C
Second: CCOC(=O)c1cc(C(C)=O)c(=O)n(C)c1N
The z-score of the first is lower: -0.51 for the first, -0.198 for the second.

First: Cc1cc(OCC(=O)NCCCN(C)C)cc(C)c1Br
Second: COCCNCCCCOc1c(Cl)cc(C)cc1Br
The z-score of the first is higher: 1.86 for the first, 0.567 for the second.

Compared with `CC(C)C(=O)NC(=S)Nc1ccc(S(=O)(=O)N(C)C)cc1`, `Cc1cc(C)nc(NS(=O)(=O)c2ccc(NC(=O)NC3CCCCC3)cc2)n1` is lower in z-score: 1.04 for the first, 0.591 for the second.

Going from `Cc1ccc(S(=O)(=O)c2ccccc2)cc1S(=O)(=O)N1CCOCC1` to `CCn1c(C(=O)N2CCCC(C(=O)NCCCc3ccccc3)C2)cc2sccc21` (stereo not given), the z-score falls from 0.0214 to -1.38.

Going from `Nc1nc(CSc2nc3ccccc3[nH]2)cs1` to `Cc1nnc(SCc2cnc(-c3ccccc3)o2)[nH]c1=O`, the z-score falls from 1.15 to -1.77.

First: CCCSc1nnc(NC(=O)Nc2ccccc2)s1
Second: Cc1csc(NC(=O)CNC(=O)OCc2ccccc2)n1
The z-score of the first is lower: -0.0887 for the first, 0.00319 for the second.

Going from `O=C(CN1C(=O)CCC1=O)Nc1nc2c(F)cc(F)cc2s1` to `Cc1cc(O)ccc1NC(=O)CCN1C(=O)c2ccc([N+](=O)[O-])cc2C1=O`, the z-score falls from 0.55 to -0.173.

Going from `COCc1cc(C)nc(OCC(=O)N/N=C/c2cc(C)n(-c3c(C)cccc3C)c2C)c1C#N` to `COc1cc(CNn2nnnc2N)cc(Br)c1OCc1c(Cl)cccc1Cl`, the z-score rises from -0.334 to 0.0416.

Going from `C=CCNC(=S)NNc1nc2c(c(=O)[nH]1)C1(CCCC1)Cc1ccccc1-2` to `O=C(CCN1C(=O)COc2ccccc21)NCCCN1CCN(c2ccc(F)cc2)CC1`, the z-score rises from -0.327 to 0.011.

First: CSc1nc(Cl)cc(N(CCO)CCO)n1
Second: COc1ccc(-c2nnc(SCc3ccccc3F)o2)cc1
The z-score of the first is lower: -0.271 for the first, 0.199 for the second.

First: CN=C1SC(CC(=O)Nc2cc(Cl)ccc2Cl)C(=O)N1C (stereo not given)
Second: O=C(NCCNc1ccc([N+](=O)[O-])cc1C(F)(F)F)c1ccccc1F
The z-score of the first is higher: -0.317 for the first, -0.453 for the second.

Going from `CC(O)C1C(=O)OC2(C)CC(C)(C)NC(=S)N12` (stereo not given) to `CCOc1ccc(-n2c(SCC(=O)Nc3ccc4c(c3)OCCO4)nc3c(c2=O)SCC3)cc1`, the z-score falls from 0.89 to -0.147.

`O=C(CSc1nc2ccccc2c(=O)n1NC(=O)Cc1ccccc1)NCc1ccccc1Cl` showed a z-score of -0.256.

In the case of `CCc1cc(C(N)=O)c(NC(=O)c2ccc(OC)cc2)s1`, the z-score is reported as active: 3.98.
